Measured values as given in the supplement of paper PMC8728848.
The other results are listed elsewhere or left out.

Legend:
Assay in all cases: glycan array binding signal (z-score within array); higher = stronger binding
Details in all cases: glycan notation: IUPAC condensed, linker removed
[1] = biological target: Neu5Ac9Ac(a2-3)Gal(b1-4)GlcNAc
Summary of the method: (§1)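 Negative Z-scores can be read as non-binding. The Z-score is calculated within each array and then averaged across arrays of one protein sequence at different concentrations or buffers and across linkers. Arrays, 3228 in all, were curated from the Consortium for Functional Glycomics database and kept only where the protein sequence was available.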

[2] = biological target: Neu5Ac9Ac(a2-6)Gal(b1-4)GlcNAc
Summary of the method: as §1

[3] = biological target: Neu5Gc(a2-3)Gal(b1-3)GlcNAc
Summary of the method: as §1

[4] = biological target: Neu5Gc(a2-3)Gal(b1-3)[Fuc(a1-4)]GlcNAc
Summary of the method: as §1

Neu5Gc(a2-3)Gal(b1-4)Glc = biological target: Neu5Gc(a2-3)Gal(b1-4)Glc
Summary of the method: as §1

[5] = biological target: Neu5Gc(a2-3)Gal(b1-4)GlcNAc
Summary of the method: as §1

[6] = biological target: Neu5Gc(a2-3)Gal(b1-4)GlcNAc(b1-3)Gal(b1-4)GlcNAc(b1-2)Man(a1-3)[Neu5Gc(a2-3)Gal(b1-4)GlcNAc(b1-3)Gal(b1-4)GlcNAc(b1-2)Man(a1-6)]Man(b1-4)GlcNAc(b1-4)GlcNAc
Summary of the method: as §1

[7] = biological target: Neu5Gc(a2-3)Gal(b1-4)[Fuc(a1-3)]GlcNAc
Summary of the method: as §1

[8] = biological target: Neu5Gc(a2-6)Gal(b1-4)GlcNAc
Summary of the method: as §1

Neu5Gc(a2-6)GalNAc = biological target: Neu5Gc(a2-6)GalNAc
Summary of the method: as §1

[9] = biological target: Neu5Gc(a2-8)Neu5Ac(a2-3)Gal(b1-4)GlcNAc
Summary of the method: as §1

[10] = biological target: Neu5Gc(a2-8)Neu5Gc(a2-3)Gal(b1-4)GlcNAc
Summary of the method: as §1

[11] = biological target: Neu5Gc(a2-8)Neu5Gc(a2-3)Gal(b1-4)GlcNAc(b1-3)Gal(b1-4)GlcNAc
Summary of the method: as §1

[12] = biological target: Neu5Gc(a2-8)Neu5Gc(a2-6)Gal(b1-4)GlcNAc
Summary of the method: as §1

[13] = biological target: Neu5Gc(b2-6)Gal(b1-4)GlcNAc
Summary of the method: as §1

B1: BDCA-2 (Homo sapiens), Q8WTT0 (protein)
chain: MVPEEEPQDREKGLWWFQLKVWSMAVVSILLLSVCFTVSSVVPHNFMYSKTVKRLSKLREYQQYHPSLTCVMEGKDIEDWSCCPTPWTSFQSSCYFISTGMQSWTKSQKNCSVMGADLVVINTREEQDFIIQNLKRNSSYFLGLSDPGGRRHWQWVDQTPYNENVTFWHSGEPNNLDERCAIINFRSSEEWGWNDIHCHVPQKSICKMKKIYI
glycan array binding signal (z-score) [1]: -0.138 | glycan array binding signal (z-score) [2]: -0.297 | glycan array binding signal (z-score) [3]: -0.239 | glycan array binding signal (z-score) [4]: -0.245 | glycan array binding signal (z-score) (Neu5Gc(a2-3)Gal(b1-4)Glc): -0.115 | glycan array binding signal (z-score) [5]: -0.267 | glycan array binding signal (z-score) [6]: -0.153 | glycan array binding signal (z-score) [7]: -0.238 | glycan array binding signal (z-score) [8]: -0.282 | glycan array binding signal (z-score) (Neu5Gc(a2-6)GalNAc): -0.148 | glycan array binding signal (z-score) [9]: -0.154 | glycan array binding signal (z-score) [10]: -0.189 | glycan array binding signal (z-score) [11]: -0.184 | glycan array binding signal (z-score) [12]: -0.175 | glycan array binding signal (z-score) [13]: -0.172
